Data from article PMC4336329 (PLoS ONE, 2015).
The whole screen tested about 310,000 compounds, of which about 2,200 (0.71%) showed an effect of 50% or more. The effect is printed as a negative number. The list shows a part of the results.

Molecular target: human ether-à-go-go-related gene (hERG) potassium channel (human, UniProt Q12809)
Assay: primary screen, population patch clamp on CHO cells stably expressing hERG

Chain of human ether-à-go-go-related gene (hERG) potassium channel (Q12809 whole entry, looked up): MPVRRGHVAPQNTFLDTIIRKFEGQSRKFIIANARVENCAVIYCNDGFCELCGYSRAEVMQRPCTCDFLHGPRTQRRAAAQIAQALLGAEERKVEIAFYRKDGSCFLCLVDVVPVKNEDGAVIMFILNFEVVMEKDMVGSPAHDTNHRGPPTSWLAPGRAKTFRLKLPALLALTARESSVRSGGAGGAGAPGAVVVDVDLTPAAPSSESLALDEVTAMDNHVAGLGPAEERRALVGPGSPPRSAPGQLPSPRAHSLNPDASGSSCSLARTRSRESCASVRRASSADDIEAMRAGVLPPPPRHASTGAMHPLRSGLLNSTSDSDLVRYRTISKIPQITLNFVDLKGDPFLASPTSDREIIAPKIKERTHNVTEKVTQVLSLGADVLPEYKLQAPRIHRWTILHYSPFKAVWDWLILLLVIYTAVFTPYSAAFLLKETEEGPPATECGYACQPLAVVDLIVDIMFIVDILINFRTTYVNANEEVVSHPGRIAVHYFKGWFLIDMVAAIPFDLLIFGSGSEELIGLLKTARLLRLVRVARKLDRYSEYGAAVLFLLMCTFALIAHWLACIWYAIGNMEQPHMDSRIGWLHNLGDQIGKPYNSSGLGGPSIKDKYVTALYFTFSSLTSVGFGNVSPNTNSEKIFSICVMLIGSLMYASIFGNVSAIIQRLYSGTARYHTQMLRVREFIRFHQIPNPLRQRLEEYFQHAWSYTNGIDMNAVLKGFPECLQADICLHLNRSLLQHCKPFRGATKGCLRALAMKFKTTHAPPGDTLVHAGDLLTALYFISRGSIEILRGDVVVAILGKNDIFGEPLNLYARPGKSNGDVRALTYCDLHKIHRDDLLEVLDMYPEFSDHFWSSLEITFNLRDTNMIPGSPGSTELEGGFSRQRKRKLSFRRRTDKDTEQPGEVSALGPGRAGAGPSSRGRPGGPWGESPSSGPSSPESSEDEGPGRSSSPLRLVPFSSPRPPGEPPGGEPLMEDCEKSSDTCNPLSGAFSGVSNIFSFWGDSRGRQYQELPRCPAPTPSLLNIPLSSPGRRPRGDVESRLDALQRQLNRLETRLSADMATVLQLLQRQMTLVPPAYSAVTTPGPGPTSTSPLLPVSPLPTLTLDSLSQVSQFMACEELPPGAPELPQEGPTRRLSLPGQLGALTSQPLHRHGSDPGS

Compound	hERG current change (%, negative = inhibition) at 1uM [%]
Cc1ccc2nc(SCC(=O)NCc3ccc(F)cc3)[nH]c2c1	4.87
COC(=O)c1ccc(CSc2nc3c(cnn3-c3ccccc3)c(=O)[nH]2)o1	11.2
CC(C)c1cccc(C(C)C)c1NC(=O)COC(=O)c1ccc2c(c1)S(=O)(=O)c1ccccc1C2=O	8.38
CCC(=O)N(Cc1cc2cc(OC)ccc2[nH]c1=O)c1cc(C)ccc1C	12.4
CCCC12CN3CC(CCC)(CN(C1)C3c1ccccn1)C2=O (stereo not drawn)	1.71
COc1ccc(-n2c(=S)[nH]c3cc(C(=O)Nc4ccc(C)c(F)c4)ccc3c2=O)c(OC)c1	13.9
O=C(C1CCN(S(=O)(=O)c2cccs2)CC1)N1CCCCC1	5.25
Cc1nc2cc(S(=O)(=O)N(C)C)ccc2n1-c1ccccc1	2.54
CCN(CC)CCn1c2c(c(SCC(=O)NCc3ccccc3)nc1=O)CCC2	-10.6
Cc1cccc(C)c1NC(=O)CNC(=O)C1CCCC1	-7.66
COc1ccc(C2/C(=C(/O)c3ccccc3)C(=O)C(=O)N2c2ccccn2)c(OC)c1 (stereo not drawn)	3.49
O=C(CCCC(=O)NCc1ccccc1)NCc1ccccc1	5.43
Cc1ccc(CN2CCC(Oc3cccc(C(=O)N(C)CCN(C)C)c3)CC2)cc1C	13.5
CC1(N2CCCCC2)C(=O)c2ccccc2C1=O	16.4
Cc1cc(N2CCOCC2)nc2ccc(NC(=S)N3CCN(Cc4ccccc4)CC3)cc12	-11.9
COc1ccc(-c2ocnc2C(=O)N2CCN(C(=O)C(c3ccccc3)c3ccccc3)CC2)cc1	9.44
CC(C)CCN1CCNC(=O)C1CC(=O)Nc1ccc(F)cc1 (stereo not drawn)	7.47
C=CCc1ccc(OCC(O)CN2CCN(c3ccccc3OC)CC2)c(OC)c1.Cl (stereo not drawn)	8.86
CCOc1ccc(OCCC(=O)OCC(=O)NCCc2ccc(S(N)(=O)=O)cc2)cc1	10.5
O=C(c1ccc2ncsc2c1)N1CCN(c2nc3ccccc3s2)CC1	5.7
CCOc1ccccc1NC(=O)NC1Cc2ccccc2C1	15.1
CCCc1nc(SCc2ccc(Cl)cc2Cl)n[nH]1	15.7
CCOC(=O)c1nn(-c2ccc(F)cc2)c(=O)cc1OCC(=O)Nc1ccc(OCC)cc1	10.8
O=C(NCCCC1CCCC1)C1CCC(=O)N(Cc2ccccc2F)C1 (stereo not drawn)	8.79
